# Experimental data: PubChem BioAssay (NCATS)
# “And” between values parts separate entries of the source, which are not always exact repeats. Equal entries are not always repeated. The inconclusive results got no clear call from the source; some entries with a clear call stand among them for comparison. For some assays here: A potency beside an inconclusive call is a rough fit, not a confirmed value. The source made the active and inactive calls. Calls follow the shape of the dose curve; as a rule, active = well fitted curve in the direction sought with a large enough effect; inconclusive = small, poorly fitted or top-dose-only effect, or another doubt; inactive = no such curve, though single readings can be large; an effect the other way counts as inactive or inconclusive.
# Columns and labels:
# [1] = system: CRL-7250; assay: Cytotoxic Profiling of Annotated Libraries Using Quantitative High-Throughput Screening (AID 1296008); conditions: Five cell lines viability, CellTiter-Glo ATP luminescence, 48-72 h; max response: stronger effect = lower value; also: nearly all actives have a fitted effect of over 60% in size
# Outline: (§1)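 Cytotoxicity was measured as CellTiter-Glo ATP luminescence, read after 10 min at room temperature. Compound treatment of the cells lasted 48 or 72 hr at 37 degrees Celsius in a qHTS format.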
# [2] = system: HaCat; assay: as above; conditions: Five cell lines viability, CellTiter-Glo ATP luminescence, 48-72 h; max response: stronger effect = lower value
# Outline: as §1
# [3] = system: KB-3-1; assay: as above; conditions: Five cell lines viability, CellTiter-Glo ATP luminescence, 48-72 h; max response: stronger effect = lower value
# Outline: as §1
# [4] = system: MCC-26; assay: qHTS assay to identify novel small-molecules to repurpose for Merkel cell carcinoma treatment (AID 1296009); conditions: MCC and control cell lines, CellTiter-Glo viability, 72 h; series mostly up to 46 µM; also: nearly all actives have a fitted effect of over 60% in size
# Outline: (§2)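 Cell viability, measured as CellTiter-Glo luminescence, was normalized between DMSO and no-cell wells. The cells had been exposed to 8- or 11-point compound dilutions for 72 hr at 37 degree celsius.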
# [5] = system: MKL-1; assay: as above; conditions: MCC and control cell lines, CellTiter-Glo viability, 72 h; series mostly up to 46 µM
# Outline: as §2
# [6] = system: UISO; assay: as above; conditions: MCC and control cell lines, CellTiter-Glo viability, 72 h; series mostly up to 46 µM
# Outline: as §2
# [7] = system: WaGa; assay: as above; conditions: MCC and control cell lines, CellTiter-Glo viability, 72 h; series mostly up to 46 µM
# Outline: as §2
# [8] = system: astro; assay: Drug repurposing screens with cells derived from glioblastoma tumor samples (AID 1345199); conditions: viability, ATP luminescence, 48 h; series mostly up to 45.9 µM; also: nearly all actives have a fitted effect of over 40% in size
# Outline: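 Primary testing used CD133+ neurospheres from four GBM patients, seven concentrations, 48 h exposure and ATP-based viability; confirmation added three slower-growing patient lines.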
# [9] = qHTS assay to identify inhibitors of the type 1 interferon - major histocompatibility complex class I in skeletal muscle: Counter screen cell viability and HiBit confirmation (AID 1347412); conditions: iHSKM muscle cells + IFN-b, HiBiT or CellTiter-Glo, 24 h; also: nearly all actives have a fitted effect of over 60% in size
# Outline: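 CRISPR HLA-B*08:01-HiBit immortalized human myoblasts (C25cl48) stimulated with 4 ng/ml IFN-beta and compounds (12-point 1:3, top 46 uM final) for 24 h at 37 C. Duplicate plates read by HiBit lytic luminescence or CellTiter Glo ATP.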
# [10] = system: C33A; assay: Primary qHTS to identify gynecologic anti-cancer compounds using libraries of approved drugs and bioactive compounds (AID 1345084); conditions: Gynecologic cancer cell panel viability, ATPlite luminescence, 48 h; series mostly up to 57.5 µM; also: nearly all actives have a fitted effect of over 55% in size
# Outline: (§3)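 Measured: luminescence after ATPlite addition (15 min, RT). Exposure: 48 h, 37 C, 5% CO2.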
# [11] = system: CAOV3; assay: as above; conditions: Gynecologic cancer cell panel viability, ATPlite luminescence, 48 h; series mostly up to 57.5 µM
# Outline: as §3
# [12] = system: CASKI; assay: as above; conditions: Gynecologic cancer cell panel viability, ATPlite luminescence, 48 h; series mostly up to 57.5 µM
# Outline: as §3
# [13] = system: Es-2; assay: as above; conditions: Gynecologic cancer cell panel viability, ATPlite luminescence, 48 h; series mostly up to 57.5 µM
# Outline: as §3
# [14] = system: HeLa; assay: as above; conditions: Gynecologic cancer cell panel viability, ATPlite luminescence, 48 h; series mostly up to 57.5 µM
# Outline: as §3
# [15] = system: HEK293; assay: Cytotoxic Profiling of Annotated Libraries Using Quantitative High-Throughput Screening (AID 1296008); conditions: Five cell lines viability, CellTiter-Glo ATP luminescence, 48-72 h; max response: stronger effect = lower value; also: nearly all actives have a fitted effect of over 60% in size
# Outline: as §1
# [16] = system: MCC-13; assay: qHTS assay to identify novel small-molecules to repurpose for Merkel cell carcinoma treatment (AID 1296009); conditions: MCC and control cell lines, CellTiter-Glo viability, 72 h; series mostly up to 46 µM; also: nearly all actives have a fitted effect of over 60% in size
# Outline: as §2
# [17] = system: MKL-2; assay: as above; conditions: MCC and control cell lines, CellTiter-Glo viability, 72 h; series mostly up to 46 µM
# Outline: as §2
# [18] = system: NIH3T3; assay: Cytotoxic Profiling of Annotated Libraries Using Quantitative High-Throughput Screening (AID 1296008); conditions: Five cell lines viability, CellTiter-Glo ATP luminescence, 48-72 h; max response: stronger effect = lower value; also: nearly all actives have a fitted effect of over 60% in size
# Outline: as §1
# [19] = system: W2; assay: qHTS profiling for inhibitors of Plasmodium falciparum proliferation (AID 504749); also: nearly all actives have a fitted effect of over 60% in size; conditions: P. falciparum in erythrocytes, SYBR Green DNA, 72 h; series mostly up to 28.7 µM
# Outline: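 SYBR Green fluorescence of parasite DNA, read after lysis and overnight dark incubation, measured growth over 72 h in erythrocyte culture at 0.3% parasitemia and 2.5% hematocrit. Data normalised to DMSO and 0.29 uM artemisinin, with plate-drift correction.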
# Potency is read from the fitted curve at half-maximal effect; tags tell the direction and shape of the fitted curve.
compound,measurement,setting,value
O=C1NCN(c2ccccc2)C12CCN(CCCC(c1ccc(F)cc1)c1ccc(F)cc1)CC2,Potency,[1],"inconclusive: 33.5 µM [inhibitor, single point]"
same,Potency,[2],"inconclusive: 29.9 µM [inhibitor, single point]"
same,Potency,[3],"inconclusive: 18.4 µM [inhibitor, single point]"
same,Potency,[4],"inconclusive: 18.8 µM [inhibitor, single point]"
same,Potency,[5],"inconclusive: 21.1 µM [inhibitor, single point]"
same,Potency,[6],"inconclusive: 26.6 µM [inhibitor, single point]"
same,Potency,[7],"inconclusive: 26.6 µM [inhibitor, single point]"
same,Potency,[8],active: 12.6 µM
same,Potency,[9]; HiBiT,"inconclusive: 24.9 µM [inhibitor, single point]"
same,Potency,[9]; Viability,"inconclusive: 49.7 µM [cytotoxic, single point]"
same,Potency,[10],"inconclusive: 31.6 µM [cytotoxic, single point]"
same,Potency,[11],active: 31.6 µM
same,Potency,[12],"inconclusive: 39.8 µM [cytotoxic, single point]"
same,Potency,[13],active: 31.6 µM
same,Potency,[14],"inconclusive: 25.1 µM [cytotoxic, partial curve, poor fit]"
CC(CN(C)C)CN1c2ccccc2CCc2ccccc21 (configuration not stated),outcome,[1],inactive
same,Potency,[15],"inconclusive: 33.5 µM [inhibitor, single point]"
same,Potency,[16],inactive
same,Potency,[17],"inconclusive: 21.1 µM [inhibitor, partial curve]"
same,Potency,[12],"inconclusive: 31.6 µM [cytotoxic, single point]"
O=C(CCCCCCNC(=O)c1cnc(N(c2ccccc2)c2ccccc2)nc1)NO,Potency,[1],"inconclusive: 13 µM [inhibitor, partial curve, poor fit]"
same,Potency,[2],"active: 16.6 µM and inconclusive: 25.9 µM [inhibitor, single point]"
same,Potency,[3],active: 11.8 µM and active: 8.2 µM
same,Potency,[18],"inconclusive: 37.2 µM [inhibitor, single point] and inconclusive: 20.6 µM [inhibitor, single point]"
same,Potency,[16],"inconclusive: 18.7 µM [inhibitor, single point]"
same,Potency,[4],"inconclusive: 33.2 µM [inhibitor, single point]"
same,Potency,[5],active: 9.35 µM
same,Potency,[7],active: 2.96 µM
same,Potency,[10],"inconclusive: 39.8 µM [cytotoxic, single point]"
same,Potency,[11],"inconclusive: 25.1 µM [cytotoxic, partial curve]"
same,Potency,[12],"inconclusive: 25.1 µM [cytotoxic, single point]"
same,Potency,[13],"inconclusive: 17.8 µM [cytotoxic, partial curve, poor fit]"
CC(=O)O[C@H]1C(=O)[C@@]2(C)[C@H]([C@H](OC(=O)c3ccccc3)[C@]3(O)C[C@H](OC(=O)[C@H](O)[C@@H](NC(=O)c4ccccc4)c4ccccc4)C(C)=C1C3(C)C)[C@]1(OC(C)=O)CO[C@@H]1C[C@@H]2O,Potency,[1],"inconclusive: 0.0219 µM [inhibitor, full curve]"
same,Potency,[2],"inconclusive: 0.0098 µM [inhibitor, full curve]"
same,Potency,[3],"inconclusive: 36.6 nM [inhibitor, full curve] and active: 9.8 nM"
same,Potency,[18],active: 31 nM
same,Potency,[8],active: 39.8 µM
same,Potency,[12],"inconclusive: 0.0282 µM [cytotoxic, full curve, poor fit]"
same,Potency,[13],active: 0.126 µM
same,Potency,[14],active: 0.0316 µM
CC(C)(C)CC(C)(C)c1ccc(O)c(Cc2ccc(Cl)cc2Cl)c1,Potency,[19],active: 0.426 µM
same,Potency,[1],"inconclusive: 23.7 µM [inhibitor, single point]"
same,Potency,[15],"inconclusive: 33.5 µM [inhibitor, single point]"
same,Potency,[16],"inconclusive: 29.9 µM [inhibitor, single point]"
same,Potency,[4],"inconclusive: 21.1 µM [inhibitor, single point]"
same,Potency,[17],"inconclusive: 26.6 µM [inhibitor, partial curve, poor fit]"
same,Potency,[6],"inconclusive: 21.1 µM [inhibitor, single point]"
same,Potency,[12],inactive
same,Potency,[13],"inconclusive: 39.8 µM [cytotoxic, single point]"
same,Potency,[14],"inconclusive: 20 µM [cytotoxic, partial curve]"
COc1ccc(-c2oc3c(CC=C(C)C)c(O)cc(O)c3c(=O)c2O)cc1,Potency,[1],"inconclusive: 1.05 µM [inhibitor, full curve, poor fit]"
same,Potency,[15],"inconclusive: 33.2 µM [inhibitor, single point]"
same,Potency,[6],inactive
CCCCCCNC(=O)n1cc(F)c(=O)[nH]c1=O,Potency,[1],"inconclusive: 5.31 µM [inhibitor, single point] and inconclusive: 11.8 µM [inhibitor, full curve, poor fit]"
same,Potency,[2],"inconclusive: 2.64 µM [inhibitor, full curve]"
same,Potency,[18],active: 1.5 µM and active: 3.72 µM
same,Potency,[16],"inconclusive: 1.68 µM [inhibitor, full curve, poor fit]"
same,Potency,[5],"inconclusive: 33.5 µM [inhibitor, partial curve, poor fit]"
same,Potency,[7],"inconclusive: 3.76 µM [inhibitor, partial curve] and inconclusive: 14.8 µM [inhibitor, partial curve]"
same,Potency,[8],"inconclusive: 22.4 µM [inhibitor, partial curve, poor fit]"
same,Potency,[11],inactive
same,Potency,[13],"inconclusive: 39.8 µM [cytotoxic, partial curve, poor fit]"
